# Inconclusive means that the source gave no clear call. Such entries were picked first, then a sample of the others. Where the call is inconclusive, the potency comes from a doubtful curve fit. Active and inactive are the calls of the source. Calls come from the whole dose curve; as a rule, active = well fitted curve in the direction sought with a large enough effect; inconclusive = small, poorly fitted or top-dose-only effect, or another doubt; inactive = no such curve, though single readings can be large; an effect the other way counts as inactive or inconclusive.
# Legend:
# [1] = molecular target: Cellular tumor antigen p53 (Homo sapiens) (UniProt P04637); assay: Primary qHTS for small molecule compounds that upregulate eGFP-tagged delta133p53alpha (in N-terminal) cells. (AID 2060322); conditions: NCI-H358 eGFP-delta133p53alpha fluorescence, 24 h; activation: active compounds read high;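 note: cells pre-induced with doxycycline then dosed without doxycycline; nearly all actives have a fitted effect of over 75% in size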;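 for activation: 0% = DMSO vehicle and 100% = reference activator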
# Chain of UniProt P04637 (P04637 whole entry, looked up): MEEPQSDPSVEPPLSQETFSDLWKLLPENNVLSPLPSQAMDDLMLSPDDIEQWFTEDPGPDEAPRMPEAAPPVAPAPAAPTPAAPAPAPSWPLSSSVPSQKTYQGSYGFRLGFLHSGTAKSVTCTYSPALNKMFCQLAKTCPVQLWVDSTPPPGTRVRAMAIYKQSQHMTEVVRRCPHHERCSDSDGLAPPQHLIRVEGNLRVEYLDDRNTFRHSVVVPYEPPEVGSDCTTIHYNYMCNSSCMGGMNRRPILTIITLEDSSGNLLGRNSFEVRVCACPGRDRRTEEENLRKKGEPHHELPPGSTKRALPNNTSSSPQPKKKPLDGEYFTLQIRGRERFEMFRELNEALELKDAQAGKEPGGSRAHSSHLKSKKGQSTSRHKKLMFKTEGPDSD
# Procedure, shortened: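 NCI-H358 cells pre-induced 24 h with 10 ng/ml doxycycline for eGFP-delta133p53alpha, plated dox-free and exposed 24 h at 37C to titrated compounds. Fixed, Hoechst-stained; gated GFP peak intensity by laser scanning cytometry, normalized to DMSO (0%) and 57.5 uM 5-azacytidine (100%).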
# [2] = molecular target: Retinaldehyde dehydrogenase 3 (Homo sapiens) (UniProt P47895); assay: qHTS for Inhibitors of the Aldehyde Dehydrogenase Family (ALDH1A3) Primary screen (AID 2061315); conditions: ALDH inhibition qHTS; activity change, negative = inhibition: at 56 µM (top of the series) unless noted;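 for activity change, negative = inhibition: plate controls were DMSO vehicle for no effect and reference inhibitor for full effect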
# Potency is the fitted concentration of half-maximal effect; tags give direction and shape of the fitted curve.
SMILES,Potency [1],Potency [2],activation [1],"activity change, negative = inhibition [2]"
COc1cc2c(cc1O)CC[C@H]1[C@@H]2CC[C@]2(C)[C@H](O)CC[C@@H]12,active: 1.51 µM,active: 17.8 µM,,
COc1ccc(-c2ccc3c(N4CCOCC4C)nc(N4CCOCC4C)nc3n2)cc1CO (stereo unspecified),,"inconclusive: 22.4 µM [inhibitor, partial curve, poor fit]",inactive: 7.14%,
C=C1C(=O)OC2/C=C(\CO)CC/C=C(\C=O)C(O)C(OC(=O)C(C)CC)C12 (stereo unspecified),"inconclusive: 23.4 µM [activator, single point]","inconclusive: 10 µM [inhibitor, partial curve, poor fit]",,
COc1cc(N2CCN(C)CC2)ccc1Nc1nccc(-c2cn(C)c3cnccc23)n1,active: 26.9 µM,"inconclusive: 4.47 µM [inhibitor, full curve, poor fit]",,
COc1cc(/C=C/C(=O)O[C@H]2[C@H](O)[C@@H](CO)O[C@@]2(CO)O[C@H]2O[C@H](COC(=O)c3ccc(O)cc3)[C@@H](O)[C@H](O)[C@H]2O)cc(OC)c1OC,,"inconclusive: 5.01 µM [inhibitor, partial curve]",inactive: -19.8%,
N[C@H]1C[C@H]1c1ccc(-c2cccc(O)c2)cc1,"inconclusive: 16.9 µM [activator, partial curve, poor fit]","inconclusive: 0.794 µM [inhibitor, full curve, poor fit]",,
Nc1ncnc2c1nc(N)n2[C@@H]1O[C@H](CO)[C@@H](O)[C@H]1O,"inconclusive: 1.9 µM [activator, partial curve, poor fit]",inactive,,
Cc1cc(O[C@@H]2O[C@H](COC(=O)CC(=O)O)[C@@H](O)[C@H](O)[C@H]2O)c(C(C)C)cc1O,,inactive,inactive: 0.763%,
COc1ccc(-c2ccc3c(N4CCOCC4)nc(N4CC(C)OC(C)C4)nc3n2)cc1CO (stereo unspecified),"inconclusive: 2.69 µM [activator, partial curve, poor fit]","inconclusive: 35.5 µM [inhibitor, single point]",,
CC1(C)CCC2(C(=O)OC3OC(CO)C(O)C(O)C3O)CCC3(C)C(=CCC4C5(C)CCC(OC6OC(C(=O)O)C(OC7OC(CO)C(O)C(O)C7O)C(OC7OC(CO)C(O)C(O)C7O)C6O)C(C)(C)C5CCC43C)C2C1 (stereo unspecified),,inactive,inactive: -5.34%,
COc1cc([C@H]2O[C@H](c3cc(OC)c4c(c3)OCO4)[C@H](C)[C@H]2C)cc(OC)c1OC,"inconclusive: 14.7 µM [activator, single point]",inactive,,
C/C=C/C=C/C=C/C(=O)O[C@@H]1C=C(CO)[C@](O)(CO)[C@@]2(C)CCCC(C)(C)[C@H]12,"inconclusive: 23.4 µM [activator, single point]",inactive,,
COc1cc(N2CCOCC2)ccc1Nc1ncc(Cl)c(Nc2ccccc2NS(C)(=O)=O)n1,"inconclusive: 0.269 µM [activator, partial curve, poor fit]","inconclusive: 3.55 µM [inhibitor, partial curve, poor fit]",,
CCCCNc1ncc2c(-c3ccc(F)cc3)nn(CC3CCC(N)CC3)c2n1 (stereo unspecified),"inconclusive: 18.5 µM [activator, single point]",inactive,,
CN(C)CCC(CSc1ccccc1)Nc1ccc(S(=O)(=O)NC(=O)c2ccc(N3CCN(Cc4ccccc4-c4ccc(Cl)cc4)CC3)cc2)cc1[N+](=O)[O-] (stereo unspecified),active: 16.9 µM,inactive,,
CC1(C=O)CCCC2(C)C1CCC13CC(CO)C(CCC12)C3 (stereo unspecified),,inactive,inactive: -9.92%,
C[C@H](CN1CCCC1)C(=O)c1ccc(C(F)(F)F)cc1,,inactive,inactive: 21%,
CC(=O)O[C@H]1CC(C)(C)CC2[C@]13CO[C@@]21CCC2[C@@]4(C)CC[C@H](O[C@@H]5OC[C@H](O[C@@H]6O[C@H](CO)[C@@H](O)[C@H](O)[C@H]6O[C@@H]6OC[C@@H](O[C@@H]7O[C@H](CO)[C@@H](O)[C@H](O)[C@H]7O)[C@H](O)[C@H]6O)[C@H](O)[C@H]5O[C@@H]5O[C@H](CO)[C@@H](O)[C@H](O)[C@H]5O)[C@@](C)(CO)C4CC[C@@]2(C)[C@]1(C)C[C@H]3O (stereo partly specified),"inconclusive: 0.902 µM [activator, full curve, poor fit]",,,inactive: 11.1% [at 11.2 µM]
